Measurements as given in PMC4336329 (PLoS ONE, 2015).
The campaign covered roughly 310,000 compounds. About 2,200 (0.71%) showed an effect of 50% or more. Effects have a minus sign here. Some of the results follow.

Each compound was assayed against human ether-à-go-go-related gene (hERG) potassium channel (human, UniProt Q12809) (assay: primary screen, population patch clamp on CHO cells stably expressing hERG).
human ether-à-go-go-related gene (hERG) potassium channel, sequence (Q12809 whole entry, looked up): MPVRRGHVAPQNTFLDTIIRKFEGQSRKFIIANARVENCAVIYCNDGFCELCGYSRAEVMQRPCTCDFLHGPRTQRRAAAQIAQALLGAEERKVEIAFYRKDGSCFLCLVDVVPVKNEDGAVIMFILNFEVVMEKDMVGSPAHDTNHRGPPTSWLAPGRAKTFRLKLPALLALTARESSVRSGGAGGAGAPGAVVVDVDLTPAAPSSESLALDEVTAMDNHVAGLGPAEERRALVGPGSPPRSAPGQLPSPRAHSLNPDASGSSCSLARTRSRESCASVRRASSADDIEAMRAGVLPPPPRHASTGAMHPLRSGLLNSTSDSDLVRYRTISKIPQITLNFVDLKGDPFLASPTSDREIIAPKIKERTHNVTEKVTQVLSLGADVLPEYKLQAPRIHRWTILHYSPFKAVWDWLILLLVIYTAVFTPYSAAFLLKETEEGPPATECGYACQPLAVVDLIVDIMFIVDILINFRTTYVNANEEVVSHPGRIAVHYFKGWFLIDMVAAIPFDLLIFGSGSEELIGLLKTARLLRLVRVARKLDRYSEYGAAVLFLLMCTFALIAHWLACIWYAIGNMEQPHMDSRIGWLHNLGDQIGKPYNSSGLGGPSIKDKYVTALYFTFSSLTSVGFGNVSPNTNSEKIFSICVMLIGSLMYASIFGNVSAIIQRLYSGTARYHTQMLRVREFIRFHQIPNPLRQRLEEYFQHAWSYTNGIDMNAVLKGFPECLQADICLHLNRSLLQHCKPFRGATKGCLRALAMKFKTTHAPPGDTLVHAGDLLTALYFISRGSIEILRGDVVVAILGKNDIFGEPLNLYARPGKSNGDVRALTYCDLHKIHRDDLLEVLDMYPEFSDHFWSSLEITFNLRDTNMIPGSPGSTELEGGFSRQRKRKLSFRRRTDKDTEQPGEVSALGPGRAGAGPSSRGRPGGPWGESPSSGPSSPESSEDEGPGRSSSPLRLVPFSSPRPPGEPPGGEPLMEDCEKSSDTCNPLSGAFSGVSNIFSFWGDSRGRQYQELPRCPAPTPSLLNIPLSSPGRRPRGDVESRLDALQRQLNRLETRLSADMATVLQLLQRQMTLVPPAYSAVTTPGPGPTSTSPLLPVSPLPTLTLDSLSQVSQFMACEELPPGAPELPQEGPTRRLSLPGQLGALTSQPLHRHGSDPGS
For Cc1cc(C)nc(-n2nc(C)c3c(C(F)F)cc(C)nc32)n1, the “hERG current change (%, negative = inhibition) at 1uM” value was 15.5%.
O=C1C2C3C=CC([C@@H]2C(=O)N1c1nccs1)C31CC1 (some centres unmarked) was tested, and the “hERG current change (%, negative = inhibition) at 1uM” value was 10.4%.
For Cc1cccc(NCc2cc(Cl)ccc2O)n1, the “hERG current change (%, negative = inhibition) at 1uM” value was 12.2%.
With CCC(C)(C)NC(=O)C(c1ccc(OC)cc1)N(C(=O)CCC(=O)Nc1cc(C)on1)c1cc(OC)ccc1OC (centres unmarked) the “hERG current change (%, negative = inhibition) at 1uM” value was 7.38%.
For Cc1cc(C)c(S(=O)(=O)N/N=C/c2ccc([N+](=O)[O-])o2)c(C)c1, the “hERG current change (%, negative = inhibition) at 1uM” value was 16.1%.
For CCCCN(C)C(=O)c1nc2ccccn2c1CN1CCN(C/C=C/c2ccccc2)CC1, the “hERG current change (%, negative = inhibition) at 1uM” value was -80.8%.
With COC(=O)[C@H](CCSC)NC(=O)Cn1ccc(N)nc1=O the “hERG current change (%, negative = inhibition) at 1uM” value was 11.8%.
With O=C(Cn1c(=S)[nH]c2ncccc2c1=O)NCCc1ccccc1 the “hERG current change (%, negative = inhibition) at 1uM” value was 15.6%.
In the case of Cc1ccc(CONC(=O)c2ccc([N+](=O)[O-])cc2)cc1, the “hERG current change (%, negative = inhibition) at 1uM” value is reported as 1.83%.
In the case of OCCN(Cc1nc(-c2ccc3c(c2)OCO3)no1)Cc1cccs1, the “hERG current change (%, negative = inhibition) at 1uM” value is reported as 7.42%.
CCOc1ncnc2c1sc1nc(C)cc(C)c12 was tested, and the “hERG current change (%, negative = inhibition) at 1uM” value was 12.7%.
In the case of COc1ccc2c(c1)O[C@H](c1ccc3c(c1)OCO3)[C@@H](O)C2=O, the “hERG current change (%, negative = inhibition) at 1uM” value is reported as 2.39%.
In the case of Cc1cccc(C2CC(c3ccccc3)Nc3nc(N)nn32)c1 (centres unmarked), the “hERG current change (%, negative = inhibition) at 1uM” value is reported as 1.03%.
For COc1ccc(S(=O)(=O)N2Cc3ccccc3CC2C(=O)Nc2ccc3c(c2)OCO3)cc1 (centres unmarked), the “hERG current change (%, negative = inhibition) at 1uM” value was 9.56%.
For CCCNC(=O)N1CCN(S(=O)(=O)c2ccc(C)cc2)CC1, the “hERG current change (%, negative = inhibition) at 1uM” value was 3.42%.
With CSc1ncccc1C(=O)Nc1cccc(S(=O)(=O)N(C)c2ccccc2)c1 the “hERG current change (%, negative = inhibition) at 1uM” value was 2.83%.
In the case of COc1cc(NC(=O)c2nnn(Cc3ccc(SC)cc3)c2N)cc(OC)c1, the “hERG current change (%, negative = inhibition) at 1uM” value is reported as 0.634%.
CCc1ccc2c(c1)C(=O)C(=O)N2CCS(=O)(=O)c1ccccc1 was tested, and the “hERG current change (%, negative = inhibition) at 1uM” value was 12.4%.
With COC(=O)c1ccc(C(=O)OC)c(NS(=O)(=O)c2ccc(NC(C)=O)cc2)c1 the “hERG current change (%, negative = inhibition) at 1uM” value was 4.56%.
O=C(O)c1ccccc1C(=O)Nc1c(-c2ccccc2)nc2ccccn12 was tested, and the “hERG current change (%, negative = inhibition) at 1uM” value was 13.6%.
With CN(C)c1cccc(C(=O)OCCNC(=O)c2cccc(S(=O)(=O)N3CCOCC3)c2)c1 the “hERG current change (%, negative = inhibition) at 1uM” value was 6.31%.
CC(C)NCCCOc1ccc(C(C)(C)c2ccccc2)cc1.O=C(O)C(=O)O was tested, and the “hERG current change (%, negative = inhibition) at 1uM” value was 19.5%.
CCOc1ccc(NC(=NCc2ccc3c(c2)OCO3)SC2CC(=O)N(c3ccc(C(=O)O)cc3)C2=O)cc1 (centres unmarked) was tested, and the “hERG current change (%, negative = inhibition) at 1uM” value was 10.8%.
